Data as given in the antibiotic and cytotoxicity screens of Wong et al. (2023).
The other results are listed elsewhere or left out.

Tests used:
[1] = test system: HSkMC (human skeletal muscle cells); assay: cytotoxicity call (relative viability < 0.9); conditions: 10 µM
[2] = test system: HepG2; assay: cytotoxicity call (relative viability < 0.9); conditions: 10 µM
[3] = test system: S. aureus RN4220; assay: growth inhibition call (relative growth <= 0.2); conditions: 50 µM

| SMILES | cytotoxicity call [1] | cytotoxicity call [2] | growth inhibition call [3] |
| --- | --- | --- | --- |
| C=CCC[C@@H](Cc1ccc(F)cc1)C(=O)OC[C@@H](NC(=O)[C@H](CC=C)CC(=O)N(CCO)Cc1ccccc1)c1ccccc1 | inactive | inactive | inactive |
| C[C@@H]1CN([C@@H](C)CO)C(=O)c2cc(NC(=O)Nc3ccc(F)cc3)ccc2O[C@@H](C)CCCCO[C@H]1CN(C)Cc1ccc(C(F)(F)F)cc1 | inactive | active | inactive |
| C[C@H]1CCCCO[C@H](CN(C)Cc2ccc3c(c2)OCO3)[C@@H](C)CN([C@@H](C)CO)C(=O)c2cc(NC(=O)Nc3ccccc3)ccc2O1 | inactive | inactive | inactive |
| O=C(OCC1OC(OC(=O)c2cc(O)c(O)c(OC(=O)c3cc(O)c(O)c(O)c3)c2)C(OC(=O)c2cc(O)c(O)c(OC(=O)c3cc(O)c(O)c(O)c3)c2)C(OC(=O)c2cc(O)c(O)c(OC(=O)c3cc(O)c(O)c(O)c3)c2)C1OC(=O)c1cc(O)c(O)c(OC(=O)c2cc(O)c(O)c(O)c2)c1)c1cc(O)c(O)c(OC(=O)c2cc(O)c(O)c(O)c2)c1 (stereo unspecified) | inactive | active | inactive |
| Cc1noc(C)c1NC(=O)Nc1ccc2c(c1)C(=O)N([C@H](C)CO)C[C@H](C)[C@H](CN(C)Cc1ccc(Oc3ccccc3)cc1)O2 | inactive | inactive | inactive |
| C[C@H]1CN([C@@H](C)CO)C(=O)c2cccc(NC(=O)c3cnccn3)c2O[C@H]1CN(C)Cc1ccncc1 | inactive | inactive | inactive |
| O=C(NCCO)C(=O)NCc1ccco1 | inactive | inactive | inactive |
| Cc1noc(C)c1S(=O)(=O)N(C)C[C@H]1Oc2ccc(NC(=O)NC(C)C)cc2CC(=O)N([C@H](C)CO)C[C@H]1C | inactive | inactive | inactive |
| C[C@H]1CCCCO[C@@H](CN(C)C(=O)CCC(F)(F)F)[C@@H](C)CN([C@@H](C)CO)C(=O)c2cc(NC(=O)NC3CCCCC3)ccc2O1 | inactive | inactive | inactive |
| C[C@@H]1CCCCO[C@H](CN(C)Cc2ccccc2)[C@H](C)CN([C@H](C)CO)C(=O)c2cc(NC(=O)CCC(F)(F)F)ccc2O1 | inactive | inactive | inactive |
| NC(=O)NCC#Cc1ccc2c(c1)[C@]1(C(=O)N2)[C@H](c2ccc(OCCO)cc2)N2[C@H](c3ccccc3)[C@H](c3ccccc3)OC(=O)[C@H]2[C@@H]1C(N)=O | inactive | inactive | inactive |
| O=C(NC[C@@H](O)CO)c1c(I)c(C(=O)NC[C@@H](O)CO)c(I)c(N(CCO)C(=O)CO)c1I | inactive | inactive | inactive |
| CN(C)CCCNC(=O)C[C@H]1CC[C@H]2[C@H](COc3ccc(NC(=O)NC4CCCC4)cc3C(=O)N2C)O1 | inactive | inactive | inactive |
| C[C@H](CO)N1C[C@H](C)[C@@H](CN(C)Cc2ccncc2)Oc2c(NS(=O)(=O)c3cccs3)cccc2C1=O | inactive | inactive | inactive |
| CC(C)NC(=O)N(C)C[C@H]1Oc2ccc(NC(=O)NC3CCCCC3)cc2C(=O)N([C@@H](C)CO)C[C@H]1C | inactive | inactive | inactive |
| C[C@H](CO)N1C[C@H](C)[C@H](CN(C)Cc2ccncc2)Oc2ccc(NC(=O)Cn3cnnn3)cc2CC1=O | inactive | inactive | inactive |
| C[C@H]1CN([C@@H](C)CO)C(=O)c2cc(NS(C)(=O)=O)ccc2O[C@@H]1CN(C)S(=O)(=O)c1cccs1 | inactive | inactive | inactive |
| O=C(NCc1ccccc1)C1=C[C@@H](c2ccc(Br)cc2)C[C@@H](OCc2ccc(CO)cc2)O1 | inactive | inactive | inactive |
| O=C(C[C@@H]1C[C@H]2c3cc(NC(=O)Nc4ccccc4F)ccc3O[C@H]2[C@@H](CO)O1)NCc1ccc(Oc2ccccc2)cc1 | inactive | inactive | inactive |
| CCCNC(=O)Nc1ccc2c(c1)OC[C@H](C)N(Cc1ccc(-c3ccccn3)cc1)C[C@@H](C)[C@H](OC)CN(C)C2=O | inactive | inactive | inactive |
| COc1ccc(S(=O)(=O)Nc2ccc3c(c2)C(=O)N([C@@H](C)CO)C[C@H](C)[C@H](CN(C)C(=O)C2CCCCC2)OCCCC[C@@H](C)O3)cc1 | inactive | inactive | inactive |
| Cl.Cl.NCCc1c[nH]cn1 | inactive | inactive | inactive |
| N[C@@H](CC(=O)N1CCn2c(nnc2C(F)(F)F)C1)Cc1cc(F)c(F)cc1F | inactive | inactive | inactive |
| COc1ccc(cc1)CN1C[C@]2(CN(C2)C(=O)Cc2ccncc2)c2c([nH]c3cc(ccc23)OC)[C@@H]1CO | inactive | inactive | inactive |
| C[C@H](CO)N1C[C@H](C)[C@@H](CN(C)S(=O)(=O)c2cn(C)cn2)Oc2ncc(C3=CCCCC3)cc2C1=O | inactive | inactive | inactive |
| O=C(NO)c1ccc(C(=O)N/N=C/[C@H](O)[C@@H](O)[C@H](O)CO)cc1 | inactive | inactive | inactive |
| COc1ccc(NC(=O)Nc2ccc3c(c2)C(=O)N([C@@H](C)CO)C[C@H](C)[C@@H](CN(C)Cc2ccc(C(=O)O)cc2)OCCCC[C@@H](C)O3)cc1 | inactive | inactive | inactive |
